This note sets out measurements from PubChem BioAssay AID1963434 (Molecular Pharmacology Branch, DTP, NCI, 2024).

Not every entry of the source has a single result; some have several. The list is limited to them. An entry can have further records. The records of an entry are repeats across runs, samples, wells, individuals or studies. Brackets with × stand for listed records that agree. Marks such as [2022-09] give the month of the run.

In the assay the test system is 755483-174-R-J1-PDC complex spheroid growth, percent test/control. Kind of assay: Anticancer human tumor 755483-174-R-J1-PDC patient-derived rhabdomyosarcoma cell line growth inhibition [Asc]. The following applies: for viability, T/C: stronger effect = lower value; for IC50: compound alone. The protocol:
Multicellular complex tumor spheroid response to apoptosis pathway targeting inhibitors Alrizomadlin, Pelcitoclax, and Dasminapant in combination with a variety of drugs and investigational agents in selected tumor cell lines
The MDM2 inhibitor alrizomadlin, the Bcl-2/Bcl-xL inhibitor pelcitoclax, and the IAPs inhibitor dasminapant were evaluated both individually and in combination with standard of care and investigational anticancer small molecules within a complex spheroid model of solid tumors. . Complex spheroids include a stromal component modeled by human endothelial cells (HUVEC) and fibroblasts modeled by human mesenchymal stem cells (MSCs). The concentration ranges selected for each drug and investigational agent were based upon clinically achievable concentrations if the clinical Cmax of the agent was known.
Compounds. The drugs and investigational agents: alrizomadlin (APG-115; NSC831270), pelcitoclax (APG-1252; NSC835773), dasminapant (APG-1387;NSC834197), TAK-243 (NSC785004), copanlisib (NSC809693), olaparib (NSC753686), talazoparib (NSC767125), cobimetinib (NSC 768068), eltanexor (KPT-8602, NSC 794443), abemaciclib (NSC 768073), sotorasib (NSC818433), adagrasib (NSC 831453), MRTX-1133 (NSC 836407), Iadademestat (ORY1001, NSC 806812), and RMC-4630 (NSC839698), were obtained from the NCI Developmental Therapeutics Program Chemical Repository. The FDA-approved anticancer drug set is available from the Developmental Therapeutics Program at https://dtp.cancer.gov/organization/dscb/obtaining/available plates.htm. […] The stock solutions were prepared in dimethyl sulfoxide (DMSO, Sigma-Aldrich, St. Louis, MO, cat. D2650) at 800-fold the tested concentration and stored at -70 degrees C prior to their use. All drugs and investigational agents were tested over a range starting from a high concentration at or near the clinical Cmax and decreasing in half-log increments. If the clinical Cmax for an agent had not been determined, the highest concentration tested was 10 microM.
The patient-derived cancer (PDC) cell lines include five colon adenocarcinomas: 186277-243-T-J2-PDC, 616215-338-R-J1-PDC, 439559-082-T-J2-PDC, 463943-066-T-J2-PDC, and 519858-162-T-J1-PDC; three pancreatic carcinomas: 323965-272-R-J2-PDC, 521955-158-R6-J3-PDC, and 521955-158-R2-J5-PDC; two uterine sarcomas: 327498-152-R-J2-PDC and 993429-296-R-J1-PDC; two rhabdomyosarcomas: 755483-174-R-J1-PDC and 772245-204-R-J1-PDC; two soft tissue sarcomas: 126254-015-R-J1-PDC and 494315-158-R-J1-PDC; two malignant fibrous histiocytomas: 317291-083-R-J1-PDC and 596521-263-R-J1-PDC; two breast carcinomas: 171881-019-R-J1-PDC and 885512-296-R-J2-PDC; and one ovarian carcinoma: 6556581-035-R-J-PDC were obtained from the NCI PDMR, (https://pdmr.cancer.gov). The established cell lines HSSY-2 synovial sarcoma (RRID:CVCL 8719), SYO-1 synovial sarcoma (RRID:CVCL_7146), MPNST malignant peripheral neural sheath tumor were obtained from the Sloan Kettering Institute. The following established cell lines were purchased from the American Type Culture Collection (ATCC, Manassas, VA), Sor the received from the NCI repository:, PANC-1 pancreatic carcinoma (CRL-1469, RRID:CVCL_0480), OVCAR-5 ovarian carcinoma (RRID:CVCL_1628), OVCAR-8 ovarian carcinoma (RRID:CVCL_1629), , MCF-7 breast carcinoma (CRL-12584, RRID:CVCL_0031), MDA-MB-231 breast carcinoma (CRL-12532, RRID:CVCL_0062), NCI-H1876 small cell lung carcinoma (CRL-5902, RRID:CVCL_1503), NCI-H510A small cell lung carcinoma (HTB-184, RRID:CVCL_1565), NCI-H1417 (CRL-5869, RRID:CVCL_1469), and NCI-H196 small cell lung carcinoma (CRL-5823, RRID:CVCL_1509). Dr. Peter Houghton (Greehey Children's Cancer Research Institute, University of Texas Health Science Center, San Antonio, TX) provided Rh-18 rhabdomyosarcoma (RRID:CVCL_1659). Pooled donor human umbilical vein endothelial cells (HUVEC, Lonza, cat. CC-2519) and human mesenchymal stem cells (hMSC, Lonza, cat. PT-2501) were purchased from Lonza (Walkersville, MD).
Cell Culture. […]
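Further: spheroids exposed to compounds for seven days before readout.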

As to `CNC(C)C(=O)NC1CN(S(=O)(=O)c2cccc(S(=O)(=O)N3CCC4CCC(C(=O)NC(c5ccccc5)c5ccccc5)N4C(=O)C(NC(=O)C(C)NC)C3)c2)CCC2CCC(C(=O)NC(c3ccccc3)c3ccccc3)N2C1=O` (stereo not given), the viability, T/C (compound alone 0.01 µM) was 62.1%, 48.2% [2022-09] and 64.3, 51.3, 48.9, 53.7, 68.8, 53.1, 51.7, 59.6, 67.5, 58.2, 55.3, 53.5, 33.9% [2022-10]; the viability, T/C (compound alone 0.0316 µM) was 45%, 51.7% [2022-09] and 39.7, 30.8, 28.5, 48.7, 56.9, 45.3 (2×), 46.3, 47.5, 59.2, 46.9, 17.9, 47.1% [2022-10]; the viability, T/C (compound alone 0.316 µM) is 35.3%, 27.3% [2022-09] and 29.3, 30.9, 30.8, 17, 36.5 (2×), 23.6, 45.1, 40.9 (2×), 42.2, 26.9, 33% [2022-10]; the viability, T/C (compound alone 1 µM) was 44.6%, 21.5% [2022-09] and 24.4, 16.6, 21.1, 16.4, 22.6, 27.6, 25.6, 27.8, 37.1, 26.6, 30.3, 35.6, 34.3% [2022-10]. Moreover, the half-maximal inhibitory concentration (IC50) (in general, the concentration that inhibits the measured activity by half) (run of 10/03/2022) is reported as 20.1 nM, 27.5 nM, 47.4 nM, 17.2 nM, 31 nM, 63.6 nM, 21.5 nM, 18.7 nM, 11.7 nM, < 10 nM.
On to `Cc1c(S(C)(=O)=O)c(-c2cc(F)cc(N3CCN(c4ccc(NS(=O)(=O)c5ccc(NC(CCN6CCC(C(=O)OCCCP(=O)(O)O)CC6)CSc6ccccc6)c(S(=O)(=O)C(F)(F)F)c5)cc4)CC3)c2)c(-c2ccc(Cl)cc2)n1C(C)C` (stereo not given), for which the viability, T/C is 52.3, 49.6, 65.9, 43.7, 54.8, 59.1, 53.1, 48.3, 51.3, 45.8, 36.5, 59.6, 40, 48.6% (compound alone 0.1 µM); 61.5, 33.9, 38.2, 35.8, 35.9, 52.3, 28.6, 46.8, 43.7, 44.3, 41.1, 54.1, 49.4, 58.1% (compound alone 0.316 µM); 47.7, 34, 40.5, 42.1, 50.5, 50.9, 39.3, 33.9, 54.4, 38.3, 57.5, 44.4, 53.5, 30.8% (compound alone 1 µM); 27.3 (2×), 36.8, 26, 32.6, 51.3, 30.7, 39.9, 38, 33.8, 47.3, 23.7, 27.2, 26.1% (compound alone 3.16 µM). Also, the 50% inhibitory concentration (IC50) (run of 09/27/2022) is recorded as 752 nM, < 100 nM, 201 nM, 425 nM, 133 nM, 595 nM, 100 nM, 375 nM.
For the compound `CCN1C(C(=O)NC23CCC(C(=O)O)(CC2)CC3)C(c2cccc(Cl)c2F)C2(C(=O)Nc3cc(Cl)ccc32)C12CCCCC2` (stereo not given), the viability, T/C (compound alone 0.03 µM) was 84.6, 54.7, 84, 92.3, 74.3, 101, 100 (2×), 83.3, 65.3, 83.5, 71.5, 93, 85.2% [2022-09] and 86.4% [2022-10]; the viability, T/C (compound alone 0.0949 µM) was 72.2, 84.5, 110, 87.3, 89.8, 88.5, 93, 82.6, 89.6, 97.8, 84.1, 81.8, 90.8, 78.9% [2022-09] and 72.4% [2022-10]; the viability, T/C (compound alone 0.3 µM) was 78.6, 80, 111, 112, 89.8, 74.2, 85.3, 77.4, 90.3, 65.8, 103, 80.2, 72.5, 94.3% [2022-09] and 83% [2022-10]; the viability, T/C (compound alone 0.949 µM) is 104, 59.2, 89.6, 94.3, 67.7, 75, 101 (2×), 87.1, 84.9, 78.4, 115, 77.5, 88.1% [2022-09] and 82.3% [2022-10]; the viability, T/C (compound alone 3 µM) was 78.3, 83.9, 80, 74.7, 106, 73.8, 82.8, 68.9, 117, 84.9, 96.5, 73.2, 92.2, 111% [2022-09] and 68.7% [2022-10].
